30 compounds from PubChem BioAssay AID1745853 (National Center for Advancing Translational Sciences (NCATS), 2022) can be followed below.

This is one part of the list. The main result of the screen is listed elsewhere. These columns were measured beside it and carry no call.

Holding throughout (test): Primary Screen for Target Class Profiling of Small Molecule Inhibitors of Methyltransferases
Experiment [1] has as its target Glycine N-methyltransferase (Homo sapiens) (UniProt Q14749). The conditions noted are these: purified enzyme, MTase-Glo SAH luminescence; measured here: GNMT inhibition; at 40 µM; stronger effect = lower value. In outline:
(§1)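 Each enzyme was assayed with SAM and its substrate. SAH formation detected by MTase-Glo luminescence; single-point 40 uM screen[…].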

For experiment [2], the target named is Guanidinoacetate N-methyltransferase (Homo sapiens) (UniProt Q14353). The note with it: purified enzyme, MTase-Glo SAH luminescence; measured here: GAMT inhibition; at 40 µM; stronger effect = lower value. In outline: as §1
The target of experiment [3] is Histamine N-methyltransferase (Homo sapiens) (UniProt P50135). The conditions noted are these: purified enzyme, MTase-Glo SAH luminescence; measured here: HNMT inhibition; at 40 µM; stronger effect = lower value. A digest of the protocol: as §1
Experiment [4] addresses Nicotinamide N-methyltransferase (Homo sapiens) (UniProt P40261). The conditions noted are these: purified enzyme, MTase-Glo SAH luminescence; measured here: NNMT inhibition; at 40 µM; stronger effect = lower value. A digest of the protocol: as §1
For experiment [5], the target named is Phenylethanolamine N-methyltransferase (Homo sapiens) (UniProt P11086). The note with it: purified enzyme, MTase-Glo SAH luminescence; measured here: PNMT inhibition; at 40 µM; stronger effect = lower value. In outline:
as §1
% is scaled to controls: 0 for no effect and ±100 for the full control effect.

Consider `O=C1CCCCN1CCNc1ccc(-c2nc(-c3ccccc3F)no2)cn1`, for which the activity change, negative = inhibition in experiment [1] is -7.95%; in experiment [2] it was -11.7%; in experiment [3] it was -17.8%; in experiment [4], -4.32%; in experiment [5] it was -0.933%.

For `Cc1ccc(CCNC(=O)CCCn2ccc3cc(S(=O)(=O)N4CCCC4)ccc32)cc1`, the activity change, negative = inhibition in experiment [1] was found to be 6.59%; in experiment [2], 0.197%; in experiment [3] it was 8.33%; in experiment [4], 4.86%; in experiment [5], 4.81%.

Consider `Cc1cc(C(=O)NC2CCCC2)c2c(C3CCNC3)noc2n1` (stereo not drawn), for which the activity change, negative = inhibition is -1.36% in experiment [1]; 2.57% in experiment [2]; -1.28% in experiment [3]; -1.06% in experiment [4]; -4.57% in experiment [5].

Consider `O=C(NCc1ccc(OC(F)(F)F)cc1)C1c2c(F)cccc2C(=O)N1CCc1ccccn1` (stereo not drawn), for which the activity change, negative = inhibition in experiment [1] was 2.42%; in experiment [2], 8.02%; in experiment [3], 11.4%; in experiment [4], -10.3%; in experiment [5], 3.57%.

For the compound `CC1CCC(NC(=O)C2(C)Cn3c(cc4sccc43)C(=O)N2CCN2CCCCCC2)CC1` (stereo not drawn), the activity change, negative = inhibition was -6.18% in experiment [1]; 2.19% in experiment [2]; -15.6% in experiment [3]; -3.4% in experiment [4]; -3.63% in experiment [5].

On to `CCCn1c(=O)c2ccc(Cl)cc2n2c(=O)n(CC(=O)NCc3ccccc3)nc12`, for which the activity change, negative = inhibition in experiment [1] was -0.227%; in experiment [2] it was 0%; in experiment [3], 3.95%; in experiment [4], 0.664%; in experiment [5] it was 2.34%.

In the case of `CC(C)c1ccc(NS(=O)(=O)c2ccc3[nH]c4c(c3c2)CCCC4)cc1`, the activity change, negative = inhibition was 2.41% in experiment [1]; 4.72% in experiment [2]; 1.57% in experiment [3]; -7.36% in experiment [4]; 1.79% in experiment [5].

For the compound `CCCCN(CC)CCN1C(=O)c2cc3occc3n2CC1(C)C(=O)NC1CCCCCCC1` (stereo not drawn), the activity change, negative = inhibition was 4.53% in experiment [1]; 0% in experiment [2]; -5.43% in experiment [3]; 0.237% in experiment [4]; -1.54% in experiment [5].

Turning to `FC(F)(F)c1ccc(N2C3CCC2CN(Cc2ccc(-c4ccccc4)cc2)C3)cc1`, the activity change, negative = inhibition is -4.97% in experiment [1]; -12.3% in experiment [2]; -1.38% in experiment [3]; -12% in experiment [4]; -5.91% in experiment [5].

As to `Cc1ccc(CNC(=O)c2cc3n(n2)CC(C)(C(=O)NC2CCCCCC2)N(C)C3=O)o1` (stereo not drawn), the activity change, negative = inhibition in experiment [1] is -5.44%; in experiment [2] it was 0%; in experiment [3], -3.29%; in experiment [4], -4.3%; in experiment [5], -6.94%.

Turning to `CCC(C)NC(=O)c1ccc2c(=O)n(C)c3nn(Cc4ccc(F)cc4)c(=O)n3c2c1` (stereo not drawn), the activity change, negative = inhibition in experiment [1] was 1.16%; in experiment [2], 1.1%; in experiment [3] it was 5.87%; in experiment [4] it was -0.465%; in experiment [5], 1.88%.

In the case of `CCOC(=O)c1cc2n(n1)CC(C)(C(=O)NCc1ccccc1)N(Cc1cccc(C)c1)C2=O` (stereo not drawn), the activity change, negative = inhibition in experiment [1] was -0.132%; in experiment [2] it was 1.95%; in experiment [3] it was 0.998%; in experiment [4], -0.811%; in experiment [5], -3.71%.

Regarding `Cn1c(C(=O)N2CCN(c3ccccn3)CC2)nc2nc(-c3ccccc3)c(Cl)cc21`, the activity change, negative = inhibition in experiment [1] is -9.07%; in experiment [2] it was -4.92%; in experiment [3] it was -6.89%; in experiment [4] it was -11.9%; in experiment [5], -3.97%.

As for `CC1(C(=O)NC2CCCCCC2)Cn2c(cc3occc32)C(=O)N1Cc1ccc(F)cc1` (stereo not drawn), the activity change, negative = inhibition in experiment [1] is -2.42%; in experiment [2] it was 0%; in experiment [3], 3.33%; in experiment [4] it was -10.6%; in experiment [5] it was -1.59%.

Consider `CC1(C(=O)NCc2ccccc2)Cn2cnc(C(=O)NCc3ccccc3F)c2C(=O)N1C1CC1` (stereo not drawn), for which the activity change, negative = inhibition in experiment [1] was -2.02%; in experiment [2], 0%; in experiment [3], -2.79%; in experiment [4], -1.21%; in experiment [5] it was 1.48%.

As to `C#Cc1cccc(Nc2ncnc3cc(OC)c(OC)cc23)c1`, the activity change, negative = inhibition is -22.8% in experiment [2], -29.9% in experiment [4] and -32.5% in experiment [5].

Regarding `COCC(=O)N1CC(C(=O)NCc2ccncc2)C2(CCOCC2)C1` (stereo not drawn), the activity change, negative = inhibition in experiment [1] is 0.631%; in experiment [2], -0.09%; in experiment [3], 1.79%; in experiment [4] it was 1.02%; in experiment [5], -3.64%.

In the case of `CCC(=O)c1cc(-c2ccc(Cl)cc2)n(-c2ccc(S(N)(=O)=O)cc2)c1C`, the activity change, negative = inhibition in experiment [1] is -4.08%; in experiment [2], -7.65%; in experiment [3], -4.73%; in experiment [4], -34.6%; in experiment [5], -11.7%.

As to `CC1CC(C)CN(CCCNC(=O)C2(C)Cn3c(cc4ccccc43)C(=O)N2Cc2cccs2)C1` (stereo not drawn), the activity change, negative = inhibition in experiment [1] is 1.37%; in experiment [2], 0.315%; in experiment [3], -1.47%; in experiment [4] it was 2.82%; in experiment [5], -0.792%.

For `COc1ccc(-c2ccc3nnc(CNC(=O)c4ccoc4)n3n2)cc1`, the activity change, negative = inhibition in experiment [1] was -10.3%; in experiment [2], -1.83%; in experiment [3] it was -2.97%; in experiment [4], -2.08%; in experiment [5], 1.69%.

Take `CCCn1c(=O)c2ccc(C(=O)NC(C)C)cc2n2c(SCC(=O)c3ccc(OC)cc3)nnc12`: the activity change, negative = inhibition in experiment [1] was -0.983%; in experiment [2], 1.72%; in experiment [3] it was -5.44%; in experiment [4] it was 3.35%; in experiment [5], 0.2%.

Consider `O=c1c2ccccc2n2c(=O)n(Cc3ccc(Cl)cc3)nc2n1Cc1ccc(F)cc1`, for which the activity change, negative = inhibition amounted to 0.231% in experiment [1]; 5.4% in experiment [2]; 3.67% in experiment [3]; 3.42% in experiment [4]; 1.38% in experiment [5].

With `COc1ccc(CNC(=O)c2ncn3c2C(=O)N(C2CC2)C(C)(C(=O)NCc2ccc(F)cc2)C3)cc1` (stereo not drawn), the activity change, negative = inhibition is 0.743% in experiment [1]; 1.01% in experiment [2]; 11.7% in experiment [3]; 7.39% in experiment [4]; 5.32% in experiment [5].

For the compound `OC[C@H]1O[C@@H](O[C@H]2[C@H](O)[C@@H](CO)O[C@@H](OCc3ccccc3)[C@@H]2O[C@@H]2OC[C@](O)(CO)[C@H]2O)[C@H](O)[C@@H](O)[C@@H]1O`, the activity change, negative = inhibition in experiment [1] was 3.78%; in experiment [2], 8.49%; in experiment [3], 7.57%; in experiment [4], -4.32%; in experiment [5], 5.3%.

With `CCOCCCNC(=O)c1cc2n(n1)CC(C)(C(=O)NCc1ccc(F)cc1)N(C)C2=O` (stereo not drawn), the activity change, negative = inhibition in experiment [1] is 2.01%; in experiment [2] it was 1.29%; in experiment [3] it was -2.74%; in experiment [4] it was 2.73%; in experiment [5] it was -1.31%.

For `Cc1ccc2c(c1)c1c3n2CCN(C(=O)c2ccccc2Cl)C3CCC1` (stereo not drawn), the activity change, negative = inhibition was -4.01% in experiment [1]; -2.21% in experiment [2]; -8.02% in experiment [3]; -21.3% in experiment [4]; -9.04% in experiment [5].

For `CCOc1ccc(CCN2C(=O)c3cc4ccccc4n3CC2(C)C(=O)NC2CCCC2)cc1` (stereo not drawn), the activity change, negative = inhibition was 3.69% in experiment [1]; 4.62% in experiment [2]; 1.26% in experiment [3]; 4.04% in experiment [4]; -0.81% in experiment [5].

As to `CC1(CO)CCCC2(C)C1C(OC(=O)c1ccccc1)CC1C(=O)OCC12O` (stereo not drawn), the activity change, negative = inhibition was 0% in experiment [1]; -6.68% in experiment [2]; 9.04% in experiment [3]; -6.4% in experiment [4]; 7.62% in experiment [5].

Take `C[C@H](Oc1cc(-c2cnn(C3CCNCC3)c2)cnc1N)c1c(Cl)ccc(F)c1Cl`: the activity change, negative = inhibition is -41.8% in experiment [1]; -21.5% in experiment [2]; -65.9% in experiment [3]; -64.6% in experiment [4]; -40.3% in experiment [5].

With `CCCC(=O)N1CCC(N2C(=O)N(Cc3cccnc3)CC23CCOC3)CC1` (stereo not drawn), the activity change, negative = inhibition in experiment [1] was -2.83%; in experiment [2] it was -11.7%; in experiment [3] it was -5.21%; in experiment [4], -10.2%; in experiment [5], -9.69%.
